# In the supplement of paper PMC8728848:
# Some of the results follow.
# Tests used:
# Experiment in all cases: glycan array binding signal (z-score within array); higher = stronger binding
# Settings in all cases: glycan notation: IUPAC condensed, linker removed
# [1] = target: Neu5Ac(a2-6)Gal(b1-4)GlcNAc(b1-2)Man(a1-3)[Man(a1-6)]Man(b1-4)GlcNAc(b1-4)GlcNAc
# Summary of the method: (§1)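 Arrays were curated from the Consortium for Functional Glycomics database, 3228 in total, and kept only where the protein sequence was available. Binding is expressed as a within-array Z-score. This score was averaged across arrays of the same protein sequence at different concentrations or buffers and across linkers, and negative values can be read as non-binding.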
# [2] = target: Neu5Ac(a2-6)Gal(b1-4)GlcNAc(b1-2)Man(a1-3)[Neu5Ac(a2-3)Gal(b1-4)GlcNAc(b1-2)Man(a1-6)]Man(b1-4)GlcNAc(b1-4)GlcNAc
# Summary of the method: as §1
# [3] = target: Neu5Ac(a2-6)Gal(b1-4)GlcNAc(b1-2)Man(a1-3)[Neu5Ac(a2-6)Gal(b1-4)GlcNAc(b1-2)Man(a1-6)]Man(b1-4)GlcNAc(b1-4)GlcNAc
# Summary of the method: as §1
# [4] = target: Neu5Ac(a2-6)Gal(b1-4)GlcNAc(b1-2)Man(a1-3)[Neu5Ac(a2-6)Gal(b1-4)GlcNAc(b1-2)Man(a1-6)]Man(b1-4)GlcNAc(b1-4)[Fuc(a1-6)]GlcNAc
# Summary of the method: as §1
# [5] = target: Neu5Ac(a2-6)Gal(b1-4)GlcNAc(b1-2)Man(a1-6)Man(b1-4)GlcNAc(b1-4)GlcNAc
# Summary of the method: as §1
# [6] = target: Neu5Ac(a2-6)Gal(b1-4)GlcNAc(b1-2)Man(a1-6)[Gal(b1-4)GlcNAc(b1-2)Man(a1-3)]Man(b1-4)GlcNAc(b1-4)GlcNAc
# Summary of the method: as §1
# [7] = target: Neu5Ac(a2-6)Gal(b1-4)GlcNAc(b1-2)Man(a1-6)[GlcNAc(b1-2)Man(a1-3)]Man(b1-4)GlcNAc(b1-4)GlcNAc
# Summary of the method: as §1
# [8] = target: Neu5Ac(a2-6)Gal(b1-4)GlcNAc(b1-2)Man(a1-6)[Man(a1-3)]Man(b1-4)GlcNAc(b1-4)GlcNAc
# Summary of the method: as §1
# [9] = target: Neu5Ac(a2-6)Gal(b1-4)GlcNAc(b1-2)[Neu5Ac(a2-6)Gal(b1-4)GlcNAc(b1-4)]Man(a1-3)[GlcNAc(b1-4)][Neu5Ac(a2-6)Gal(b1-4)GlcNAc(b1-2)[Neu5Ac(a2-6)Gal(b1-4)GlcNAc(b1-6)]Man(a1-6)]Man(b1-4)GlcNAc(b1-4)GlcNAc
# Summary of the method: as §1
# [10] = target: Neu5Ac(a2-6)Gal(b1-4)GlcNAc(b1-2)[Neu5Ac(a2-6)Gal(b1-4)GlcNAc(b1-4)]Man(a1-3)[GlcNAc(b1-4)][Neu5Ac(a2-6)Gal(b1-4)GlcNAc(b1-4)Man(a1-6)]Man(b1-4)GlcNAc(b1-4)GlcNAc
# Summary of the method: as §1
# [11] = target: Neu5Ac(a2-6)Gal(b1-4)GlcNAc(b1-2)[Neu5Ac(a2-6)Gal(b1-4)GlcNAc(b1-6)]Man(a1-6)[Neu5Ac(a2-6)Gal(b1-4)GlcNAc(b1-2)Man(a1-3)][GlcNAc(b1-4)]Man(b1-4)GlcNAc(b1-4)GlcNAc
# Summary of the method: as §1
# [12] = target: Neu5Ac(a2-6)Gal(b1-4)GlcNAc(b1-3)Gal(b1-3)GlcNAc
# Summary of the method: as §1
# [13] = target: Neu5Ac(a2-6)Gal(b1-4)GlcNAc(b1-3)Gal(b1-4)GlcNAc
# Summary of the method: as §1
# [14] = target: Neu5Ac(a2-6)Gal(b1-4)GlcNAc(b1-3)Gal(b1-4)GlcNAc(b1-2)Man(a1-3)[Neu5Ac(a2-6)Gal(b1-4)GlcNAc(b1-3)Gal(b1-4)GlcNAc(b1-2)Man(a1-6)]GalNAc
# Summary of the method: as §1
# [15] = target: Neu5Ac(a2-6)Gal(b1-4)GlcNAc(b1-3)Gal(b1-4)GlcNAc(b1-3)Gal(b1-4)GlcNAc
# Summary of the method: as §1
# [16] = target: Neu5Ac(a2-6)Gal(b1-4)GlcNAc(b1-3)Gal(b1-4)GlcNAc(b1-3)Gal(b1-4)GlcNAc(b1-2)Man(a1-3)[Neu5Ac(a2-6)Gal(b1-4)GlcNAc(b1-3)Gal(b1-4)GlcNAc(b1-3)Gal(b1-4)GlcNAc(b1-2)Man(a1-6)]GalNAc
# Summary of the method: as §1
# [17] = target: Neu5Ac(a2-6)Gal(b1-4)GlcNAc(b1-3)Gal(b1-4)GlcNAc(b1-3)GalNAc
# Summary of the method: as §1
# [18] = target: Neu5Ac(a2-6)Gal(b1-4)GlcNAc(b1-3)Gal(b1-4)GlcNAc(b1-3)[Neu5Ac(a2-6)Gal(b1-4)GlcNAc(b1-3)Gal(b1-4)GlcNAc(b1-6)]GalNAc
# Summary of the method: as §1
# [19] = target: Neu5Ac(a2-6)Gal(b1-4)GlcNAc(b1-3)Gal(b1-4)GlcNAc(b1-6)[Gal(b1-3)]GalNAc
# Summary of the method: as §1
# [20] = target: Neu5Ac(a2-6)Gal(b1-4)GlcNAc(b1-3)Gal(b1-4)[Fuc(a1-3)]GlcNAc(b1-3)Gal(b1-4)[Fuc(a1-3)]GlcNAc
# Summary of the method: as §1
# [21] = target: Neu5Ac(a2-6)Gal(b1-4)GlcNAc(b1-3)GalNAc
# Summary of the method: as §1
# [22] = target: Neu5Ac(a2-6)Gal(b1-4)GlcNAc(b1-3)[Neu5Ac(a2-6)Gal(b1-4)GlcNAc(b1-6)]GalNAc
# Summary of the method: as §1
# [23] = target: Neu5Ac(a2-6)Gal(b1-4)GlcNAc(b1-6)GalNAc
# Summary of the method: as §1
# [24] = target: Neu5Ac(a2-6)Gal(b1-4)GlcNAc(b1-6)[Gal(b1-3)GlcNAc(b1-3)]Gal(b1-4)Glc
# Summary of the method: as §1
# [25] = target: Neu5Ac(a2-6)Gal(b1-4)GlcNAc(b1-6)[Gal(b1-3)]GalNAc
# Summary of the method: as §1
# [26] = target: Neu5Ac(a2-6)Gal(b1-4)GlcNAc6S
# Summary of the method: as §1
# Neu5Ac(a2-6)GalNAc = target: Neu5Ac(a2-6)GalNAc
# Summary of the method: as §1
# [27] = target: Neu5Ac(a2-6)GalNAc(b1-4)GlcNAc
# Summary of the method: as §1
# [28] = target: Neu5Ac(a2-6)GalNAc(b1-4)GlcNAc6S
# Summary of the method: as §1
# [29] = target: Neu5Ac(a2-6)GlcNAc(b1-4)GlcNAc
# Summary of the method: as §1
# [30] = target: Neu5Ac(a2-6)GlcNAc(b1-4)GlcNAc(b1-4)GlcNAc
# Summary of the method: as §1
binder,measurement,setting,value
"BC2LB (Burholderia cenocepacia), B4EH85_BURCJ (protein) MGSSHHHHHHSSGENLYFQGHMSQPFTHDDLYALLQLAGNDATAVQANGDQAVLDRMRQFMTAQLVEKLPQYDVFVDIATIPYSFDVGSWQNKVKTDAAGEVVACTVTWAGAPGVLPGAAAKFGVGAVVNYFSKATPH",glycan array binding signal (z-score),[1],-0.279
same,glycan array binding signal (z-score),[2],-0.317
same,glycan array binding signal (z-score),[3],-0.242
same,glycan array binding signal (z-score),[4],-0.147
same,glycan array binding signal (z-score),[5],-0.314
same,glycan array binding signal (z-score),[6],-0.256
same,glycan array binding signal (z-score),[7],-0.343
same,glycan array binding signal (z-score),[8],-0.235
same,glycan array binding signal (z-score),[9],-0.269
same,glycan array binding signal (z-score),[10],-0.057
same,glycan array binding signal (z-score),[11],-0.233
same,glycan array binding signal (z-score),[12],-0.263
same,glycan array binding signal (z-score),[13],-0.335
same,glycan array binding signal (z-score),[14],-0.05
same,glycan array binding signal (z-score),[15],-0.241
same,glycan array binding signal (z-score),[16],0.827
same,glycan array binding signal (z-score),[17],-0.241
same,glycan array binding signal (z-score),[18],-0.307
same,glycan array binding signal (z-score),[19],-0.227
same,glycan array binding signal (z-score),[20],-0.208
same,glycan array binding signal (z-score),[21],10.1
same,glycan array binding signal (z-score),[22],-0.141
same,glycan array binding signal (z-score),[23],-0.029
same,glycan array binding signal (z-score),[24],-0.336
same,glycan array binding signal (z-score),[25],-0.315
same,glycan array binding signal (z-score),[26],-0.302
same,glycan array binding signal (z-score),Neu5Ac(a2-6)GalNAc,-0.234
same,glycan array binding signal (z-score),[27],-0.418
same,glycan array binding signal (z-score),[28],-0.026
same,glycan array binding signal (z-score),[29],-0.297
same,glycan array binding signal (z-score),[30],-0.338
